# Experimental data taken from paper PMC4336329 (PLoS ONE, 2015).
# About 2,200 (0.71%) of roughly 310,000 compounds showed an effect of 50% or more. The effect is printed as a negative number. The list shows a part of the results.
# Target: human ether-à-go-go-related gene (hERG) potassium channel (human, UniProt Q12809)
# Test: primary screen, population patch clamp on CHO cells stably expressing hERG
# Chain of human ether-à-go-go-related gene (hERG) potassium channel (Q12809 whole entry, looked up): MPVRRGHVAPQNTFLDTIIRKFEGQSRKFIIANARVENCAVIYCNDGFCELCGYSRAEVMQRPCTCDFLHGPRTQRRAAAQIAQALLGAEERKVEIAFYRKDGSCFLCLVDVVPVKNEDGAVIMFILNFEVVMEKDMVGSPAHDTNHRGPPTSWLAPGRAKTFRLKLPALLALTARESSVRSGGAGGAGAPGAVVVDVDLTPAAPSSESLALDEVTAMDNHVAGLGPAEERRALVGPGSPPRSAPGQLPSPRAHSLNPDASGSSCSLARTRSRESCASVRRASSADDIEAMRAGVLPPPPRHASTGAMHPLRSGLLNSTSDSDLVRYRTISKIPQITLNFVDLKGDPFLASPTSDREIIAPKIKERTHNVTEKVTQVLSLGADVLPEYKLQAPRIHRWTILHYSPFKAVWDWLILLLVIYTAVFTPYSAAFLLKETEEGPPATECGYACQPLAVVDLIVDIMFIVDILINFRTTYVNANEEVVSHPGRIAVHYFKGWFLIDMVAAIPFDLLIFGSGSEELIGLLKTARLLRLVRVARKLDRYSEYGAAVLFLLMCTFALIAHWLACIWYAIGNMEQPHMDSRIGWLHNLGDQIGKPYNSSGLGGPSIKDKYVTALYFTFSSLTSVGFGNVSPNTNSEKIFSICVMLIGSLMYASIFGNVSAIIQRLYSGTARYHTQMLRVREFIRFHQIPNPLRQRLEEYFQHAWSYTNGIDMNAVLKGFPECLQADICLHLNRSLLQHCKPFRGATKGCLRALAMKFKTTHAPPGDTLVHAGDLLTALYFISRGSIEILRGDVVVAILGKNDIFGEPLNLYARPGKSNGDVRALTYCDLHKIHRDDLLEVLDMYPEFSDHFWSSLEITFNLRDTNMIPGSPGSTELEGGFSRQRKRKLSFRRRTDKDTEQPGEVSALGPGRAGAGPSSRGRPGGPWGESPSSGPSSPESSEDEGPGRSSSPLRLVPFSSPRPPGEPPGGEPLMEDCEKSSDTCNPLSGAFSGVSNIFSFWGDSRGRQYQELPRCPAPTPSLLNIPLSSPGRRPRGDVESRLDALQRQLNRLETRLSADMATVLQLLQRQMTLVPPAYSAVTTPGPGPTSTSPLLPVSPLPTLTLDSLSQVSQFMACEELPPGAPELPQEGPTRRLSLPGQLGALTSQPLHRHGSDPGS
row,Structure (SMILES),"hERG current change (%, negative = inhibition) at 1uM [%]"
1,CC(=O)N1CCN(c2ccc(NC(=O)c3ccc(C)cc3)cc2)CC1,14.7
2,CCOC(=O)c1ccccc1NC(=O)CSc1nc2[nH]ncc2c(=O)[nH]1,8.29
3,COc1ccccc1C1C(C(N)=O)=C(C)Nc2nc(-c3ccccc3Cl)nn21 (stereo not shown),6.26
4,CCc1cc(-c2n[nH]c(C)c2-c2nc3ccccc3s2)c(O)cc1OCC(=O)NN,0.0876
5,CCOCc1c(C(=O)Nc2ccc(OC)nc2)oc2ccccc12,1.82
6,Cc1ccc(S(=O)(=O)/N=C/c2c(O)ccc3ccccc23)cc1,12.8
7,O=C(CN1c2ccccc2Sc2ccccc21)NNC(=O)Nc1ccc(Cl)cc1,4.7
8,CCOc1ccc(-c2nc3c(s2)CCc2onc(-c4ccc(OC)cc4)c2-3)cc1,8.21
9,O=C(CNC(=O)c1ccc2c(c1)OCO2)Nc1cccc(Br)c1,8.98
10,Cc1ccc(C(=O)NCCc2nnc3ccc(SCC(=O)Nc4ccccc4F)nn23)cc1,12.9
11,CNc1nc(OCCNC(=O)Nc2ccccc2)nc(N2CCOCC2)n1,24.7
12,Cc1ccnc(NC(=O)Cn2c(=O)oc3cc(S(=O)(=O)N4CCCC4)ccc32)c1,12.7
13,COc1ccc(OCC(=O)Nc2ccc3c(c2)nc(CCN2CCN(C)CC2)n3C)cc1,13.3
14,O=C(Nc1ccccc1N1CCOCC1)c1cc(Br)c(Br)s1,2.27
15,O=C(Nc1ccc(CN2CCS(=O)(=O)CC2)cc1)c1ccc(Cl)cc1,-3.42
16,Cc1nc(-c2c(C(=O)NNC(=O)Nc3c(C)cccc3C)noc2C)cs1,1.34
17,CC(C)=NNc1cc([N+](=O)[O-])cc2c1C(=O)N(C)S2=O (stereo not shown),6.37
18,COc1ccc(NC(=O)NCCCN2CCCC2=O)c(OC)c1,14.9
19,COc1cccc(NC(=O)CCCn2nc(C)c3c(C)n(-c4ccccc4)nc3c2=O)c1,7.75
20,Cc1ccc(C)c(S(=O)(=O)N2CCN(C(=O)Cc3ccc(S(=O)(=O)N4CCOCC4)s3)CC2)c1,7.6
21,Cc1cccc(OCc2nnc(SCC(=O)c3ccccc3)o2)c1,8.21
22,O=C(NCCO)c1ccc(-c2nnc(Nc3ccc(O)cc3)c3ccccc23)cc1,14.2
23,O=C1N/C(=C\c2ccsc2)C(=O)N1Cc1ccc(F)cc1,10.2
24,Cc1cc(Br)ccc1SCC(=O)NCC(c1ccco1)N1CCCCC1 (stereo not shown),12.2
25,CCCCn1nnnc1NCc1cc(OC)c(OC)c(OC)c1,1.2
26,Cc1ccccc1C1CC(c2ccccc2)Nc2ncnn21 (stereo not shown),7.13
27,Cc1ccc(NC(=S)Nc2cccc(S(=O)(=O)Nc3c(C)n(C)n(-c4ccccc4)c3=O)c2)cc1,11
28,O=c1c2cc(NC(=S)NC3CCN(Cc4ccccc4)CC3)ccc2nc2n1CCCCC2,-0.621

row,Structure (SMILES),"hERG current change (%, negative = inhibition) at 1uM [%]"
1,CN1CCN(C(=O)/C(C#N)=C/c2ccc(F)cc2)CC1.Cl,1.43
2,Cc1nnc(NC2CCCCC2)[nH]c1=O,7.65
3,O=C(O)/C=C/c1ccc2noc(-c3ccccc3)c2c1,11.5
4,CCCC(=O)Nn1cnc2c(c1=O)C1(CCCCC1)Cc1ccccc1-2,7.68
5,CCOC(=O)CN(C(=O)COc1nc(-c2ccccc2)cc(C)c1C#N)c1ccccc1C,9.34
6,C=CCC(C(=O)OC)(C(=O)OC)c1ccc(C(F)(F)F)cc1[N+](=O)[O-],8.67
7,CCOc1ccccc1NC1=C(Cl)C(=O)N(c2ccccc2)C1=O,11
8,COc1ccc(CCNC(=O)CCNC(=O)N2CC(=O)Nc3ccccc32)cc1,10.6
9,CC(C)c1ccc(S(=O)(=O)Nc2ccc(SC(F)F)cc2)cc1,8.05
10,CCOC(=O)c1sc(NC(=O)c2ccc(S(=O)(=O)N(C)C)cc2)nc1C,10.8
11,OCC1(Cc2ccccc2)CCCN(Cc2cnn(-c3ccccc3)c2)C1 (stereo not shown),-27.4
12,O=C(Cc1ccccc1)Nc1ccc(Br)c(Cl)c1,9.98
13,COc1cc(-c2cc(N3C(=O)Nc4ccccc4N3O)n[nH]2)cc(OC)c1OC,4.94
14,O=C(CSc1nc2c(c(=O)[nH]1)CCCC2)Nc1ccc(Cl)cc1F,10.4
15,CC1(C)Oc2ccc(NC(=O)c3ccco3)cc2O1,-5.51
16,CCOC(=O)Cc1csc(NC(=O)CCc2ccccc2)n1,16.6
17,Cc1cc(C(=O)NC2CC(C)(C)Cc3c2cnn3-c2cccc(F)c2)nn1C (stereo not shown),9.79
18,CC(C)c1nnc(NC(=O)C2CCCN2C(=O)Nc2ccccc2[N+](=O)[O-])s1 (stereo not shown),-5.74
19,Cc1cccc(NC(=O)CSc2nnc(CCC(=O)Nc3ccc(C)c(Cl)c3)n2C)c1,1.62
20,Cc1cc(C(=O)CN2CCC(C)CC2)c(C)n1-c1ccc(F)cc1,2.01
21,O=C(COC(=O)CSc1ccc([N+](=O)[O-])cc1)NCCCc1ccccc1,8.4
22,Cc1ccc(NC(=O)C(C)c2ccc(-c3ccccc3)c(F)c2)cc1 (stereo not shown),20.6
23,CCOc1cccc2cc(C(=O)N3CCc4ccccc43)c(=O)oc12,4.25
24,Cc1nc2c(-c3ccc(F)cc3)c(C)nn2c(C)c1CCC(=O)N1CCOCC1,-27.4
25,O=C(O/N=C1\C(=O)N(c2ccccc2)c2ccccc21)C1CC1,7.72
26,O=C(C1=C(O)C(=O)N(Cc2ccco2)C1c1cccnc1)c1cc2ccccc2o1 (stereo not shown),16.9
27,COc1ccc(OCC(=O)Nc2cccc(-c3nc4ccccc4[nH]3)c2)cc1,-17.7
